The values below come from the RNAGym collection of RNA variant scans (doi:10.7554/elife.90254).

First the molecules themselves.
B1: OR4K15 (parent)
chain: GUUAACGGUCAUAGGCCAUGGAAACUAGGAGCACCAUUUCGCUGCCAGUGAAGAAAUGAACAAAGAAAAUCUGGGCCAGGCAGGCAUCAAAAGAAAUAGUCUUGCGCUCAACCAGAAAGUCUGUAAUCAUUUUAAGGGUA

The source gives no read counts; variants with many changes may rest on few reads.

In the data set the parent is B1. Put plainly: self-cleavage, relative activity (ratio to wild type); higher = more cleavage; in vitro, sequencing; the parent is a self-cleaving ribozyme.
For the variant U19A A68G A86G U122C, the self-cleavage was found to be 0.64.
As to U19C A90G A94G A98G A111G U120C, the self-cleavage worked out at 0.01.
For U19C A67C A111G, the self-cleavage worked out at 0.04.
In the case of G20A A27G U132C, the self-cleavage was 0.79.
For the variant U19A U37C A51G A96C, the self-cleavage is 1.46.
With U19C A22U U38C A78C A94G U132C the figure was 0.11; with U19C U70A U87G, 0.31; with U19C A24U A63G, 0.98.
Regarding A18G U49A A67G A68G A114G A117G, the self-cleavage was 0.49.
Turning to A18U A55G U57C A62G, the self-cleavage amounted to 0.71.
Under U19C A24G A116G stands 0.29; under A18U C77U A126U G136A, 1.1.
In the case of A18U U43C U49G G136A, the self-cleavage turned out to be 0.5.
For A18U U49G A60G A78G A116G, the self-cleavage turned out to be 0.15.
On to U19C A24G A52G U87C U103C A135U, for which the self-cleavage stood at 1.5.
Regarding U19A G58U A60G A91G, the self-cleavage came out at 0.53.
Turning to A18U U38C A92G U124C, the self-cleavage is 0.5.
Consider U19C A59G G123A, for which the self-cleavage amounted to 1.18.
With U19C A94G A111G, the self-cleavage amounted to 0.03.
On to G20A A24G A33C, for which the self-cleavage turned out to be 1.24.
In the case of U19C U122C U124C U130C, the self-cleavage is 0.57.
With U19C A62G U72C A89G A92G U131C the figure was 0.05; with A18U A24G U38A, 1.48; with G21U A51G A114G, 0.79.
For the variant U19C A89G A92G U102C, the self-cleavage turned out to be 1.96.
With A18G U38C U39A A51G U127C, the self-cleavage is 0.95.
For the variant U19A A64G A82G A94G, the self-cleavage amounted to 0.56.
With U19A G53A U108A the figure was 0.04.
With A18U A36G U43C the figure was 2.18; with U19C U37C U38C, 1.55.
Turning to U19C U100C A116C G123C, the self-cleavage turned out to be 1.65.
As to U19A A51U A64C U87A A118G, the self-cleavage worked out at 0.44.
For the variant U19A A51G A118U A134U, the self-cleavage came out at 0.84.
As to U19C C32U U49C, the self-cleavage came to 1.16.
For the variant U19C A55G A59G A94U, the self-cleavage is 1.81.
As to U19C A23G U49C A59G A95G, the self-cleavage is 1.26.
With A18U A30U A56G G106A U120G U127C, the self-cleavage is 0.
Regarding A18G U37C U49C, the self-cleavage is 1.32.
Consider U19A U38C A96G, for which the self-cleavage came out at 1.78.
Consider A18U U72C A82G U139C, for which the self-cleavage was 0.63.
Turning to G20A A66G A110G, the self-cleavage worked out at 0.19.
Under U19C A52G A110G stands 0.05.
As for A18U A96G U122C, the self-cleavage turned out to be 0.87.
Take U19A A30G A59G A82G: the self-cleavage was 0.53.
On to U19C U38C U39A A67G U132C, for which the self-cleavage turned out to be 0.34.
As for U19A U26C A64G, the self-cleavage was 1.12.
Regarding A18U U70C A98G, the self-cleavage is 0.44.
With U19C U97G A125G U131C the figure was 0.46; with U19G U38A A94G G106A, 0.
Under A22C G28A A78C A90G A111U stands 0.02; under A18G U49C A89C, 1.34; under A18U A24C U43C A117G, 2.09.
Consider U19A A24G U37C A129G U131C, for which the self-cleavage amounted to 1.81.
As for A18G U43G U57A A90G, the self-cleavage was 1.11.
Turning to U19A G31A A78G, the self-cleavage worked out at 0.28.
Take G21C G73A G75C A90G A140G: the self-cleavage was 0.12.
As to U19C A47U U57A, the self-cleavage stood at 0.62.
For the variant U19C A68G U132C, the self-cleavage came out at 0.83.
Turning to A18G U26C A36U U43C A95U U132C, the self-cleavage came to 1.6.
With U19C A56G A90G, the self-cleavage turned out to be 1.26.
As for A18G U100C U131C, the self-cleavage was 2.37.
For the variant U19C A78U U87C, the self-cleavage turned out to be 0.4.
Under U19A A66G A69G stands 1.22; under G21A A23G U37C U39C, 1.04; under A18U U72A A140G, 0.2.
Consider A18U U39A A69G C77U G106U U108C A114U U133C, for which the self-cleavage was found to be 0.
Under U19C A63G U132C stands 1.64; under U19C A90U A94U A110G, 0.22; under A18U C35U A86G A116G, 0.53.
As to A18U A116G A129G, the self-cleavage came out at 0.14.
Regarding G21A G83A A91G, the self-cleavage was found to be 2.27.
Turning to A18U A52G U127C, the self-cleavage was determined as 0.72.
As for U19C U26C U97C U124C, the self-cleavage came to 0.85.
In the case of A18G U43C A118G, the self-cleavage worked out at 1.18.
In the case of U19C A90G A135U, the self-cleavage is 0.53.
As for U19C U39A A82U A114C A116G, the self-cleavage was 0.01.
On to U19C A55G A116G, for which the self-cleavage was 1.05.
Under U19C U87C A96G U100C A125G stands 1.38; under U19A A22G A36C A52G A59G A140G, 0.73; under U19A A64G A96G, 1.11.
Regarding U19A A36G A56G A114G, the self-cleavage amounted to 0.28.
Regarding U19A A52G A94U, the self-cleavage amounted to 1.46.
For the variant U19C A64U U108C, the self-cleavage stood at 0.03.
G21U A47G A62G A91G U131C: the self-cleavage worked out at 0.21.
